# Data as given in the supplement of paper PMC8728848.
# The other results are listed elsewhere or left out.
# B1: Mindin (Homo sapiens), Q9BUD6 (protein)
# chain: MENPSPAAALGKALCALLLATLGAAGQPLGGESICSARALAKYSITFTGKWSQTAFPKQYPLFRPPAQWSSLLGAAHSSDYSMWRKNQYVSNGLRDFAERGEAWALMKEIEAAGEALQSVHEVFSAPAVPSGTGQTSAELEVQRRHSLVSFVVRIVPSPDWFVGVDSLDLCDGDRWREQAALDLYPYDAGTDSGFTFSSPNFATIPQDTVTEITSSSPSHPANSFYYPRLKALPPIARVTLVRLRQSPRAFIPPAPVLPSRDNEIVDSASVPETPLDCEVSLWSSWGLCGGHCGRLGTKSRTRYVRVQPANNGSPCPELEEEAECVPDNCV
# Key:
# Assay in all cases: glycan array binding signal (z-score within array); higher = stronger binding
# Conditions in all cases: glycan notation: IUPAC condensed, linker removed
# [1] = molecular target: Neu5Ac(a2-3)Gal6S(b1-4)[Fuc(a1-3)]GlcNAc
# Procedure, shortened: (§1)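 Arrays were curated from the Consortium for Functional Glycomics database, 3228 in total, and kept only where the protein sequence was available. Binding is expressed as a within-array Z-score. This score was averaged across arrays of the same protein sequence at different concentrations or buffers and across linkers, and negative values can be read as non-binding.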
# [2] = molecular target: Neu5Ac(a2-3)GalNAc
# Procedure, shortened: as §1
# [3] = molecular target: Neu5Ac(a2-3)GalNAc(b1-4)GlcNAc
# Procedure, shortened: as §1
# [4] = molecular target: Neu5Ac(a2-3)[GalNAc(b1-4)]Gal(b1-4)Glc
# Procedure, shortened: as §1
# [5] = molecular target: Neu5Ac(a2-3)[GalNAc(b1-4)]Gal(b1-4)GlcNAc
# Procedure, shortened: as §1
# [6] = molecular target: Neu5Ac(a2-3)[Neu5Ac(a2-6)]GalNAc
# Procedure, shortened: as §1
# [7] = molecular target: Neu5Ac(a2-6)Gal
# Procedure, shortened: as §1
# [8] = molecular target: Neu5Ac(a2-6)Gal(b1-4)Glc
# Procedure, shortened: as §1
# [9] = molecular target: Neu5Ac(a2-6)Gal(b1-4)GlcNAc
# Procedure, shortened: as §1
# [10] = molecular target: Neu5Ac(a2-6)Gal(b1-4)GlcNAc(b1-3)Gal(b1-4)GlcNAc
# Procedure, shortened: as §1
# [11] = molecular target: Neu5Ac(a2-6)Gal(b1-4)GlcNAc(b1-3)Gal(b1-4)[Fuc(a1-3)]GlcNAc(b1-3)Gal(b1-4)[Fuc(a1-3)]GlcNAc
# Procedure, shortened: as §1
# [12] = molecular target: Neu5Ac(a2-6)Gal(b1-4)GlcNAc6S
# Procedure, shortened: as §1
# [13] = molecular target: Neu5Ac(a2-6)GalNAc
# Procedure, shortened: as §1
# [14] = molecular target: Neu5Ac(a2-6)GalNAc(b1-4)GlcNAc
# Procedure, shortened: as §1
# [15] = molecular target: Neu5Ac(a2-8)Neu5Ac
# Procedure, shortened: as §1
# [16] = molecular target: Neu5Ac(a2-8)Neu5Ac(a2-3)Gal(b1-4)Glc
# Procedure, shortened: as §1
# [17] = molecular target: Neu5Ac(a2-8)Neu5Ac(a2-3)[GalNAc(b1-4)]Gal(b1-4)Glc
# Procedure, shortened: as §1
# [18] = molecular target: Neu5Ac(a2-8)Neu5Ac(a2-8)Neu5Ac
# Procedure, shortened: as §1
# [19] = molecular target: Neu5Ac(a2-8)Neu5Ac(a2-8)Neu5Ac(a2-3)Gal(b1-4)Glc
# Procedure, shortened: as §1
# [20] = molecular target: Neu5Ac(a2-8)Neu5Ac(a2-8)Neu5Ac(a2-3)[GalNAc(b1-4)]Gal(b1-4)Glc
# Procedure, shortened: as §1
# [21] = molecular target: Neu5Ac(a2-8)Neu5Ac(a2-8)Neu5Ac(a2-8)Neu5Ac(a2-3)[GalNAc(b1-4)]Gal(b1-4)Glc
# Procedure, shortened: as §1
# [22] = molecular target: Neu5Ac(b1-6)GalNAc
# Procedure, shortened: as §1
# [23] = molecular target: Neu5Ac(b2-6)Gal(b1-4)GlcNAc
# Procedure, shortened: as §1
# [24] = molecular target: Neu5Ac9Ac(a2-6)Gal(b1-4)GlcNAc
# Procedure, shortened: as §1
# [25] = molecular target: Neu5Gc(a2-3)Gal(b1-3)GlcNAc
# Procedure, shortened: as §1
# [26] = molecular target: Neu5Gc(a2-3)Gal(b1-3)[Fuc(a1-4)]GlcNAc
# Procedure, shortened: as §1
# [27] = molecular target: Neu5Gc(a2-3)Gal(b1-4)Glc
# Procedure, shortened: as §1
# [28] = molecular target: Neu5Gc(a2-3)Gal(b1-4)GlcNAc
# Procedure, shortened: as §1
# [29] = molecular target: Neu5Gc(a2-3)Gal(b1-4)[Fuc(a1-3)]GlcNAc
# Procedure, shortened: as §1
# [30] = molecular target: Neu5Gc(a2-6)Gal(b1-4)GlcNAc
# Procedure, shortened: as §1
# [31] = molecular target: Neu5Gc(a2-6)GalNAc
# Procedure, shortened: as §1
binder,measurement,setting,value
B1,glycan array binding signal (z-score),[1],-0.264
same,glycan array binding signal (z-score),[2],-0.343
same,glycan array binding signal (z-score),[3],-0.332
same,glycan array binding signal (z-score),[4],0.066
same,glycan array binding signal (z-score),[5],0.583
same,glycan array binding signal (z-score),[6],-0.227
same,glycan array binding signal (z-score),[7],-0.216
same,glycan array binding signal (z-score),[8],-0.31
same,glycan array binding signal (z-score),[9],-0.313
same,glycan array binding signal (z-score),[10],-0.32
same,glycan array binding signal (z-score),[11],-0.299
same,glycan array binding signal (z-score),[12],-0.215
same,glycan array binding signal (z-score),[13],-0.334
same,glycan array binding signal (z-score),[14],-0.408
same,glycan array binding signal (z-score),[15],-0.301
same,glycan array binding signal (z-score),[16],-0.086
same,glycan array binding signal (z-score),[17],0.237
same,glycan array binding signal (z-score),[18],-0.189
same,glycan array binding signal (z-score),[19],-0.295
same,glycan array binding signal (z-score),[20],0.218
same,glycan array binding signal (z-score),[21],0.139
same,glycan array binding signal (z-score),[22],-0.335
same,glycan array binding signal (z-score),[23],-0.127
same,glycan array binding signal (z-score),[24],-0.308
same,glycan array binding signal (z-score),[25],-0.313
same,glycan array binding signal (z-score),[26],-0.385
same,glycan array binding signal (z-score),[27],-0.364
same,glycan array binding signal (z-score),[28],-0.329
same,glycan array binding signal (z-score),[29],0.067
same,glycan array binding signal (z-score),[30],-0.363
same,glycan array binding signal (z-score),[31],-0.312
